# From the supplement of paper PMC7826260
# The other results are listed elsewhere or left out. The data describe in vitro nicking of single-stranded DNA by Rep domains (3 µM enzyme, 1 h, 37 °C); shown is the middle of each 90-letter strand. Values are log2 of uncut reads against the no-enzyme pool; uncut sequences lie near 0, cut ones below; no hit call is given. Shares of all reads are compared, so uncut sequences can rise above 0 when many others are cut.
# What was measured:
# Assay in all cases: uncleaved DNA left, log2 of reads against the no-enzyme library (log2 ratio); higher = less cleavage (more negative = more Rep cleavage of the k-mer); sequences stand for … in CTCGTCCG…ACCGGAGA
# [1] = system: T1, Rep nickase domain of Muscovy duck circovirus
# T1 sequence (residues 1-111 of Rep, tag left off): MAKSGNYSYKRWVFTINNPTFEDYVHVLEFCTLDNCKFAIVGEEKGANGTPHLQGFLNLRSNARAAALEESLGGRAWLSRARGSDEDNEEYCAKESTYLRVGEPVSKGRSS
# Method: (§1)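 A pool of 90-nt single-stranded DNAs with seven random bases just before the constant AC of the nick site (name = the seven bases) was cut by 3 µM recombinant His6-SUMO-tagged Rep nickase domain (300 nM DNA, 50 mM HEPES pH 8.0, 50 mM NaCl, 1 mM MnCl2, 1 h, 37 °C, three replicates). Uncut DNA was amplified and sequenced.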
# [2] = system: T2, Rep nickase domain of banana bunchy top virus
# T2 sequence (residues 1-94 of Rep, tag left off): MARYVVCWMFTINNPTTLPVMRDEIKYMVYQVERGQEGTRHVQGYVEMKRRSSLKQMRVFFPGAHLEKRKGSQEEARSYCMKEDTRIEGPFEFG
# Method: as §1
# [3] = system: T3, Rep nickase domain of cabbage leaf curl virus
# T3 sequence (residues 1-116 of Rep, tag left off): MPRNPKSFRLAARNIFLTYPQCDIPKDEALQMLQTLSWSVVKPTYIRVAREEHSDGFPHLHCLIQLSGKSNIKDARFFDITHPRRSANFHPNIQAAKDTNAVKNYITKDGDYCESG
# Method: as §1
# [4] = system: T4, Rep nickase domain of chickpea chlorotic dwarf virus
# T4 sequence (residues 1-124 of Rep, tag left off): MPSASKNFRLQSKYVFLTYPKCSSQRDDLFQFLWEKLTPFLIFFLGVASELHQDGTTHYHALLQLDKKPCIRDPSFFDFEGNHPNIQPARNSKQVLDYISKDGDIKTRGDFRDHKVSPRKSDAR
# Method: as §1
# [5] = system: T5, Rep nickase domain of faba bean necrotic yellows virus
# T5 sequence (residues 1-98 of Rep, tag left off): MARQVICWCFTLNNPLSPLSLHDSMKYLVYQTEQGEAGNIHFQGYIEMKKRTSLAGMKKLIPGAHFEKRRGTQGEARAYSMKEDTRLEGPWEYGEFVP
# Method: as §1
# [6] = system: T6, Rep nickase domain of maize striate mosaic virus
# T6 sequence (residues 1-117 of Rep, tag left off): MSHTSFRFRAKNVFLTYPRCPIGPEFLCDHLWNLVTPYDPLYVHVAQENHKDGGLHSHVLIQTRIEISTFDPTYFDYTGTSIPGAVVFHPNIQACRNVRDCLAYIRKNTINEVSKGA
# Method: as §1
# [7] = system: T7, Rep nickase domain of porcine circovirus 2
# T7 sequence (residues 2-116 of Rep, tag left off): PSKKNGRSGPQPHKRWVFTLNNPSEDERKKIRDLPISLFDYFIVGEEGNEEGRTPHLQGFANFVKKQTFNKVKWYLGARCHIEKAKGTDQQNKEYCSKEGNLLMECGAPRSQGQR
# Method: as §1
# [8] = system: T8, Rep nickase domain of tomato golden mosaic virus
# T8 sequence (residues 1-124 of Rep, tag left off): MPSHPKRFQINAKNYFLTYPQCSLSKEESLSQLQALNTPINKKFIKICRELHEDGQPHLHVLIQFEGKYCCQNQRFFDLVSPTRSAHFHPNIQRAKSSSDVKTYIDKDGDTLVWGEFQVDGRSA
# Method: as §1
# [9] = system: T9, Rep nickase domain of tomato yellow leaf curl virus
# T9 sequence (residues 1-136 of Rep, tag left off): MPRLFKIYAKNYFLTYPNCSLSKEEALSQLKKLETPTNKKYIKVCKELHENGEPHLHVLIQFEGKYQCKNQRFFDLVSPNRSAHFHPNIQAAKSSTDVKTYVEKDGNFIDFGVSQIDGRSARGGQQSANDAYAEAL
# Method: as §1
# [10] = system: T10, Rep nickase domain of wheat dwarf virus
# T10 sequence (residues 1-137 of Rep, tag left off): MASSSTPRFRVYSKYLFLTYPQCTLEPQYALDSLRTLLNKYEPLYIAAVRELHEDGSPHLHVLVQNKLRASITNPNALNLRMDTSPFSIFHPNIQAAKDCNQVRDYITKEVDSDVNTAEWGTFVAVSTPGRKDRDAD
# Method: as §1
Sequence,uncleaved DNA left (log2) [1],uncleaved DNA left (log2) [2],uncleaved DNA left (log2) [3],uncleaved DNA left (log2) [4],uncleaved DNA left (log2) [5],uncleaved DNA left (log2) [6],uncleaved DNA left (log2) [7],uncleaved DNA left (log2) [8],uncleaved DNA left (log2) [9],uncleaved DNA left (log2) [10]
ATTAAAG,0.132,0.00602,-0.679,-0.449,0.129,-1.19,0.262,0.0631,0.0973,0.00235
GCATAAG,-0.122,-0.0461,-0.747,-0.0492,-0.0524,-0.939,0.0619,0.00947,0.0389,-0.085
AACGGTT,0.114,0.00495,0.296,1.11,0.0932,1.67,0.0364,0.109,-0.0115,-0.0361
GAACTGC,-0.0518,0.0182,0.0495,0.214,0.0322,0.164,0.0404,0.0564,-0.0952,0.096
TTGCCTG,-0.17,-0.0362,-0.287,-0.517,0.0214,-0.439,-0.776,-0.0905,-0.00672,0.0323
GCCATCT,-0.0463,0.0211,-0.112,-1.2,-0.118,-0.454,-0.1,-0.126,0.0246,-0.125
ATGTTCT,-1.15,-0.26,-0.159,-2.21,-0.416,-0.772,-3.61,-0.0417,-0.0558,-0.152
GCCTGGT,-0.191,-0.0492,0.182,0.518,-0.0704,0.273,-0.762,0.068,0.00324,-0.135
ACCGTTA,-0.188,-0.0126,-0.258,-1.17,-0.0114,-0.944,-0.0854,-0.0959,-0.0482,-0.0365
AATCGAA,-0.00269,0.00581,-0.241,-0.757,-0.0151,-0.935,-0.0398,-0.00942,-0.0634,-0.129
ATCCCTA,-0.0632,-0.00857,-0.0502,-0.882,0.152,-0.375,-0.145,-0.0278,-0.065,-0.0761
TGATACC,-0.186,-0.0538,-0.662,-0.428,-0.18,0.55,-2.77,-0.222,-0.192,-0.554
CCACGCG,0.119,0.0665,-0.701,0.303,0.0785,-0.47,0.259,0.0262,0.119,-0.0247
CCGCCCG,-0.111,-0.0417,-0.8,-0.149,-0.0606,-0.809,-0.0445,0.0702,-0.225,-0.223
CAGGGAA,-0.0377,0.038,0.316,1.13,-0.0796,1.31,0.127,-0.0401,0.0255,-0.00936
ATTTTAA,0.0705,0.0584,-0.068,-0.393,0.147,-0.562,0.066,0.0624,0.0929,0.0583
AAGATAG,0.083,0.0278,-0.507,-0.513,0.11,-1.05,0.297,0.0652,0.0646,0.00105
AATATCG,-0.0234,-0.0608,-0.963,-0.173,-0.0919,-1.23,0.0978,-0.0627,-0.101,-0.107
TGCGTCA,0.0108,-0.126,-0.44,-0.515,-0.0477,-0.599,-0.15,-0.0847,-0.00444,-0.233
GCATTCA,-0.031,0.0156,0.131,-0.144,0.061,-0.0666,0.0385,0.147,0.0487,0.0285
TGGGCGG,0.00868,0.0499,0.365,1.08,0.0209,1.49,0.0766,0.015,-0.00627,-0.0962
CAAACCA,-0.203,-0.0218,-0.402,-2.63,-0.0108,-0.842,-0.5,-0.127,-0.0216,-0.0557
CTTCCCA,-0.201,-0.00471,0.0363,-1.1,-0.0785,-0.655,-1.95,-0.0985,0.132,0.121
ACCGTCG,0.0978,0.0962,-0.416,0.921,0.184,0.226,0.113,-0.0335,0.202,-0.00281
GCATTGA,-0.0259,-0.0199,-0.348,-0.334,0.0204,-0.89,0.0217,-0.0433,0.0523,-0.107
GTTTGGC,0.0363,0.0136,0.151,0.682,-0.112,0.471,0.0595,-0.0134,0.0223,0.0164
GACAAAT,-0.00389,0.083,0.447,0.461,0.173,1.13,-0.427,0.1,0.111,0.221
CACAGAC,0.152,0.102,0.161,0.255,0.0408,-0.427,0.324,-0.0094,0.109,0.0882
ATTATGT,-0.391,-0.0709,-0.0806,-0.503,0.00406,-0.958,-3.08,-0.0605,0.0149,-0.0194
TAATGGC,0.0783,-0.00976,-2.65,-2.61,-0.029,-1.46,-0.0619,-0.192,0.0548,-0.219
